Lines with a small IC50 respond at low doses; a limit (>, <) means that the fit lies beyond the doses tested. AUC is the area under the same curve over the 256-fold range up to the top dose, as a fraction; values near 1 show little effect. Any top dose called inferred comes from the curve model; the source does not state it.

Compound in the test: CC1=C(C(=O)Nc2cc3cn[nH]c3cc2F)C(c2ccc(C(F)(F)F)cc2)CC(=O)N1 [GSK429286A]
In words: Viability of human cancer cell lines after 72 h of drug (GDSC screen). Particulars: top dose inferred. The method, then:
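Human cancer cell lines in 384-well plates, medium with 10% serum, drug for 72 h over a 256-fold dose range (nine 2-fold or five 4-fold steps up to the top dose). Adherent lines were fixed and stained with the nucleic acid dye Syto60, suspension lines read with resazurin; signal relative to control wells, capped at 0 and 100%. One two-parameter sigmoid per drug and line, fitted in a mixed model over all curves with the slope shared within a line.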
In general, IC50 refers to the midpoint of a concentration-inhibition curve. On to “IST-SL1 (small cell lung carcinoma, semi-adherent, top dose 20 µM)”, for which the AUC came out at 0.92 and the IC50 was greater than 20 µM.
In the same order, the values of “IST-SL2 (small cell lung carcinoma, suspension, top dose 20 µM)” are 0.949 and greater than 20 µM.
For J82 (bladder, adherent, top dose 20 µM) the same measures were 0.969 and greater than 20 µM.
In the same order, the values of “JAR (urogenital system, adherent, top dose 20 µM)” are 0.964 and greater than 20 µM.
On to “JEG-3 (urogenital system, adherent, top dose 20 µM)”, for which the AUC worked out at 0.991 and the IC50 was greater than 20 µM.
In the same order, the values of JHH-1 (liver, adherent, top dose 20 µM) are 0.983 and greater than 20 µM.
For JHH-2 (liver, adherent, top dose 20 µM) the same measures were 0.986 and greater than 20 µM.
In the same order, the values of JHH-4 (liver, adherent, top dose 20 µM) are 0.987 and greater than 20 µM.
Turning to JHH-6 (liver, adherent, top dose 20 µM), the AUC worked out at 0.985 and the IC50 is greater than 20 µM.
Turning to JHH-7 (liver, adherent, top dose 20 µM), the AUC is 0.985 and the IC50 was greater than 20 µM.
As to “JHOS-2 (ovary, adherent, top dose 20 µM)”, the AUC turned out to be 0.976 and the IC50 is greater than 20 µM.
For “JHOS-3 (ovary, adherent, top dose 20 µM)”, the AUC was 0.984 and the IC50 is greater than 20 µM.
On to “JHU-011 (head and neck, adherent, top dose 20 µM)”, for which the AUC amounted to 0.981 and the IC50 is greater than 20 µM.
For the cell line “JHU-022 (head and neck, adherent, top dose 20 µM)”, the AUC was determined as 0.941 and the IC50 is greater than 20 µM.
For “JIMT-1 (breast, adherent, top dose 20 µM)” the same measures were 0.983 and greater than 20 µM.
As for “JJN-3 (haematopoietic neoplasm, suspension, top dose 20 µM)”, the AUC amounted to 0.966 and the IC50 is greater than 20 µM.
In the same order, the values of “JM1 (B-cell lymphoma, suspension, top dose 20 µM)” are 0.898 and 18.9 µM.
Turning to “JSC-1 (B-cell lymphoma, suspension, top dose 20 µM)”, the AUC amounted to 0.859 and the IC50 is 16.3 µM.
Consider “JURL-MK1 (chronic myeloid leukaemia, suspension, top dose 20 µM)”, for which the AUC turned out to be 0.945 and the IC50 is greater than 20 µM.
In the same order, the values of “JVM-2 (lymphoid neoplasm, suspension, top dose 20 µM)” are 0.959 and greater than 20 µM.
In the same order, the values of “JVM-3 (lymphoid neoplasm, suspension, top dose 20 µM)” are 0.984 and greater than 20 µM.
Regarding “JiyoyeP-2003 (Burkitt lymphoma, suspension, top dose 20 µM)”, the AUC was 0.978 and the IC50 is greater than 20 µM.
Turning to K2 (melanoma, adherent, top dose 20 µM), the AUC came to 0.976 and the IC50 is greater than 20 µM.
For K5 (thyroid, adherent, top dose 20 µM) the same measures were 0.987 and greater than 20 µM.
For “KALS-1 (glioma, adherent, top dose 20 µM)” the same measures were 0.947 and greater than 20 µM.
Regarding “KARPAS-45 (lymphoblastic leukaemia, suspension, top dose 20 µM)”, the AUC turned out to be 0.779 and the IC50 amounted to 6.79 µM.
In the case of “KARPAS-299 (anaplastic large cell lymphoma, suspension, top dose 20 µM)”, the AUC was determined as 0.983 and the IC50 is greater than 20 µM.
In the same order, the values of “KARPAS-422 (B-cell lymphoma, suspension, top dose 20 µM)” are 0.941 and greater than 20 µM.
Consider “KARPAS-620 (haematopoietic neoplasm, suspension, top dose 20 µM)”, for which the AUC was found to be 0.954 and the IC50 is greater than 20 µM.
For “KASUMI-1 (acute myeloid leukaemia, suspension, top dose 20 µM)” the same measures were 0.499 and 1.24 µM.
Take “KCL-22 (chronic myeloid leukaemia, suspension, top dose 20 µM)”: the AUC amounted to 0.944 and the IC50 is greater than 20 µM.
On to “KE-37 (lymphoblastic leukaemia, suspension, top dose 20 µM)”, for which the AUC amounted to 0.691 and the IC50 is 3.69 µM.
On to “KELLY (neuroblastoma, adherent, top dose 20 µM)”, for which the AUC was 0.952 and the IC50 is greater than 20 µM.
In the same order, the values of “KG-1 (acute myeloid leukaemia, suspension, top dose 20 µM)” are 0.957 and greater than 20 µM.
In the same order, the values of KGN (ovary, adherent, top dose 20 µM) are 0.966 and greater than 20 µM.
In the same order, the values of “KINGS-1 (glioma, adherent, top dose 20 µM)” are 0.978 and greater than 20 µM.
Regarding “KLE (endometrium, adherent, top dose 20 µM)”, the AUC was determined as 0.976 and the 50% inhibitory concentration (IC50) is greater than 20 µM.
For “KM12 (large intestine, adherent, top dose 20 µM)” the same measures were 0.982 and greater than 20 µM.
Consider “KM-H2 (Hodgkin lymphoma, suspension, top dose 20 µM)”, for which the AUC amounted to 0.984 and the IC50 was greater than 20 µM.
For “KMH-2 (thyroid, adherent, top dose 20 µM)” the same measures were 0.967 and greater than 20 µM.
For “KMOE-2 (acute myeloid leukaemia, suspension, top dose 20 µM)” the same measures were 0.968 and greater than 20 µM.
Consider “KMRC-1 (kidney, adherent, top dose 20 µM)”, for which the AUC was found to be 0.986 and the IC50 was greater than 20 µM.
In the same order, the values of “KMRC-20 (kidney, adherent, top dose 20 µM)” are 0.979 and greater than 20 µM.
For “KMS-11 (myeloma, suspension, top dose 20 µM)” the same measures were 0.979 and greater than 20 µM.
In the same order, the values of “KMS-12-BM (myeloma, suspension, top dose 20 µM)” are 0.983 and greater than 20 µM.
For the cell line “KNS-42 (glioma, adherent, top dose 20 µM)”, the AUC turned out to be 0.976 and the IC50 is greater than 20 µM.
On to “KNS-81-FD (glioma, adherent, top dose 20 µM)”, for which the AUC stood at 0.962 and the IC50 is greater than 20 µM.
For “KON (head and neck, adherent, top dose 20 µM)” the same measures were 0.981 and greater than 20 µM.
As for “KOPN-8 (B-cell leukaemia, suspension, top dose 20 µM)”, the AUC came to 0.951 and the IC50 is greater than 20 µM.

The values are drawn from the supplement of paper PMC4967469.
